# Laboratory results from the supplement of paper PMC8728848.
# The list shows a part of the results.
# Tests used:
# Assay in all cases: glycan array binding signal (z-score within array); higher = stronger binding
# Settings in all cases: glycan notation: IUPAC condensed, linker removed
# [1] = biological target: GlcNAc(b1-2)Gal(b1-3)GalNAc
# How it was run: (§1)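 Columns mapping to the same glycan were averaged after glycan names were converted to IUPAC-condensed notation. The data come from 3228 arrays in the Consortium for Functional Glycomics database, limited to those with an available protein sequence. Binding is reported as a within-array Z-score averaged across arrays of one protein sequence and across linkers.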
# [2] = biological target: GlcNAc(b1-2)Man(a1-3)[GlcNAc(b1-2)Man(a1-6)]Man(b1-4)GlcNAc(b1-4)GlcNAc
# How it was run: as §1
# [3] = biological target: GlcNAc(b1-2)Man(a1-3)[GlcNAc(b1-2)Man(a1-6)]Man(b1-4)GlcNAc(b1-4)[Fuc(a1-6)]GlcNAc
# How it was run: as §1
# [4] = biological target: GlcNAc(b1-2)Man(a1-3)[GlcNAc(b1-4)][GlcNAc(b1-2)Man(a1-6)]Man(b1-4)GlcNAc(b1-4)GlcNAc
# How it was run: as §1
# [5] = biological target: GlcNAc(b1-2)Man(a1-3)[GlcNAc(b1-4)][GlcNAc(b1-2)Man(a1-6)]Man(b1-4)GlcNAc(b1-4)[Fuc(a1-6)]GlcNAc
# How it was run: as §1
# [6] = biological target: GlcNAc(b1-2)[GlcNAc(b1-4)]Man(a1-3)[GlcNAc(b1-2)Man(a1-6)]Man(b1-4)GlcNAc(b1-4)GlcNAc
# How it was run: as §1
# [7] = biological target: GlcNAc(b1-2)[GlcNAc(b1-4)]Man(a1-3)[GlcNAc(b1-4)][GlcNAc(b1-2)Man(a1-6)]Man(b1-4)GlcNAc(b1-4)GlcNAc
# How it was run: as §1
# [8] = biological target: GlcNAc(b1-2)[GlcNAc(b1-4)]Man(a1-3)[GlcNAc(b1-4)][GlcNAc(b1-2)[GlcNAc(b1-6)]Man(a1-6)]Man(b1-4)GlcNAc(b1-4)GlcNAc
# How it was run: as §1
# [9] = biological target: GlcNAc(b1-2)[GlcNAc(b1-4)]Man(a1-3)[GlcNAc(b1-4)][GlcNAc(b1-2)[GlcNAc(b1-6)]Man(a1-6)]Man(b1-4)GlcNAc(b1-4)[Fuc(a1-6)]GlcNAc
# How it was run: as §1
# [10] = biological target: GlcNAc(b1-2)[GlcNAc(b1-6)]Man(a1-6)[GlcNAc(b1-2)Man(a1-3)]Man(b1-4)GlcNAc(b1-4)GlcNAc
# How it was run: as §1
# [11] = biological target: GlcNAc(b1-2)[GlcNAc(b1-6)]Man(a1-6)[GlcNAc(b1-2)Man(a1-3)]Man(b1-4)GlcNAc(b1-4)[Fuc(a1-6)]GlcNAc
# How it was run: as §1
# [12] = biological target: GlcNAc(b1-2)[GlcNAc(b1-6)]Man(a1-6)[GlcNAc(b1-4)][GlcNAc(b1-2)Man(a1-3)]Man(b1-4)GlcNAc(b1-4)GlcNAc
# How it was run: as §1
# GlcNAc(b1-3)Fuc = biological target: GlcNAc(b1-3)Fuc
# How it was run: as §1
# GlcNAc(b1-3)Gal = biological target: GlcNAc(b1-3)Gal
# How it was run: as §1
# [13] = biological target: GlcNAc(b1-3)Gal(b1-3)GalNAc
# How it was run: as §1
# GlcNAc(b1-3)Gal(b1-4)Glc = biological target: GlcNAc(b1-3)Gal(b1-4)Glc
# How it was run: as §1
# [14] = biological target: GlcNAc(b1-3)Gal(b1-4)GlcNAc
# How it was run: as §1
# [15] = biological target: GlcNAc(b1-3)Gal(b1-4)GlcNAc(b1-2)Man(a1-3)[GlcNAc(b1-3)Gal(b1-4)GlcNAc(b1-2)Man(a1-6)]Man(b1-4)GlcNAc(b1-4)GlcNAc
# How it was run: as §1
# [16] = biological target: GlcNAc(b1-3)Gal(b1-4)GlcNAc(b1-2)Man(a1-3)[GlcNAc(b1-3)Gal(b1-4)GlcNAc(b1-2)Man(a1-6)]Man(b1-4)GlcNAc(b1-4)[Fuc(a1-6)]GlcNAc
# How it was run: as §1
# [17] = biological target: GlcNAc(b1-3)Gal(b1-4)GlcNAc(b1-2)[GlcNAc(b1-3)Gal(b1-4)GlcNAc(b1-6)]Man(a1-6)[GlcNAc(b1-3)Gal(b1-4)GlcNAc(b1-2)Man(a1-3)]Man(b1-4)GlcNAc(b1-4)GlcNAc
# How it was run: as §1
# [18] = biological target: GlcNAc(b1-3)Gal(b1-4)GlcNAc(b1-3)Gal(b1-4)GlcNAc
# How it was run: as §1
# [19] = biological target: GlcNAc(b1-3)Gal(b1-4)GlcNAc(b1-3)Gal(b1-4)GlcNAc(b1-2)Man(a1-3)[GlcNAc(b1-3)Gal(b1-4)GlcNAc(b1-3)Gal(b1-4)GlcNAc(b1-2)Man(a1-6)]Man(b1-4)GlcNAc(b1-4)GlcNAc
# How it was run: as §1
# [20] = biological target: GlcNAc(b1-3)Gal(b1-4)GlcNAc(b1-3)Gal(b1-4)GlcNAc(b1-2)Man(a1-3)[GlcNAc(b1-3)Gal(b1-4)GlcNAc(b1-3)Gal(b1-4)GlcNAc(b1-2)Man(a1-6)]Man(b1-4)GlcNAc(b1-4)[Fuc(a1-6)]GlcNAc
# How it was run: as §1
# [21] = biological target: GlcNAc(b1-3)Gal(b1-4)GlcNAc(b1-3)Gal(b1-4)GlcNAc(b1-2)[GlcNAc(b1-3)Gal(b1-4)GlcNAc(b1-3)Gal(b1-4)GlcNAc(b1-6)]Man(a1-6)[GlcNAc(b1-3)Gal(b1-4)GlcNAc(b1-3)Gal(b1-4)GlcNAc(b1-2)Man(a1-3)]Man(b1-4)GlcNAc(b1-4)[Fuc(a1-6)]GlcNAc
# How it was run: as §1
# [22] = biological target: GlcNAc(b1-3)Gal(b1-4)GlcNAc(b1-3)Gal(b1-4)GlcNAc(b1-3)Gal(b1-4)GlcNAc(b1-2)Man(a1-3)[GlcNAc(b1-3)Gal(b1-4)GlcNAc(b1-3)Gal(b1-4)GlcNAc(b1-3)Gal(b1-4)GlcNAc(b1-2)Man(a1-6)]Man(b1-4)GlcNAc(b1-4)GlcNAc
# How it was run: as §1
# [23] = biological target: GlcNAc(b1-3)Gal(b1-4)GlcNAc(b1-3)Gal(b1-4)GlcNAc(b1-3)Gal(b1-4)GlcNAc(b1-2)Man(a1-3)[GlcNAc(b1-3)Gal(b1-4)GlcNAc(b1-3)Gal(b1-4)GlcNAc(b1-3)Gal(b1-4)GlcNAc(b1-2)Man(a1-6)]Man(b1-4)GlcNAc(b1-4)[Fuc(a1-6)]GlcNAc
# How it was run: as §1
# [24] = biological target: GlcNAc(b1-3)Gal(b1-4)GlcNAc(b1-3)Gal(b1-4)GlcNAc(b1-3)Gal(b1-4)GlcNAc(b1-2)[GlcNAc(b1-3)Gal(b1-4)GlcNAc(b1-3)Gal(b1-4)GlcNAc(b1-3)Gal(b1-4)GlcNAc(b1-6)]Man(a1-6)[GlcNAc(b1-3)Gal(b1-4)GlcNAc(b1-3)Gal(b1-4)GlcNAc(b1-3)Gal(b1-4)GlcNAc(b1-2)Man(a1-3)]Man(b1-4)GlcNAc(b1-4)[Fuc(a1-6)]GlcNAc
# How it was run: as §1
# [25] = biological target: GlcNAc(b1-3)Gal(b1-4)GlcNAc(b1-3)Gal(b1-4)GlcNAc(b1-3)Gal(b1-4)GlcNAc(b1-3)Gal(b1-4)GlcNAc(b1-2)Man(a1-3)[GlcNAc(b1-3)Gal(b1-4)GlcNAc(b1-3)Gal(b1-4)GlcNAc(b1-3)Gal(b1-4)GlcNAc(b1-3)Gal(b1-4)GlcNAc(b1-2)Man(a1-6)]Man(b1-4)GlcNAc(b1-4)GlcNAc
# How it was run: as §1
# [26] = biological target: GlcNAc(b1-3)Gal(b1-4)GlcNAc(b1-3)Gal(b1-4)GlcNAc(b1-3)Gal(b1-4)GlcNAc(b1-3)Gal(b1-4)GlcNAc(b1-2)Man(a1-3)[GlcNAc(b1-3)Gal(b1-4)GlcNAc(b1-3)Gal(b1-4)GlcNAc(b1-3)Gal(b1-4)GlcNAc(b1-3)Gal(b1-4)GlcNAc(b1-2)Man(a1-6)]Man(b1-4)GlcNAc(b1-4)[Fuc(a1-6)]GlcNAc
# How it was run: as §1
# [27] = biological target: GlcNAc(b1-3)Gal(b1-4)GlcNAc(b1-3)Gal(b1-4)GlcNAc(b1-3)Gal(b1-4)GlcNAc(b1-3)Gal(b1-4)GlcNAc(b1-2)[GlcNAc(b1-3)Gal(b1-4)GlcNAc(b1-3)Gal(b1-4)GlcNAc(b1-3)Gal(b1-4)GlcNAc(b1-3)Gal(b1-4)GlcNAc(b1-6)]Man(a1-6)[GlcNAc(b1-3)Gal(b1-4)GlcNAc(b1-3)Gal(b1-4)GlcNAc(b1-3)Gal(b1-4)GlcNAc(b1-3)Gal(b1-4)GlcNAc(b1-2)Man(a1-3)]Man(b1-4)GlcNAc(b1-4)[Fuc(a1-6)]GlcNAc
# How it was run: as §1
# [28] = biological target: GlcNAc(b1-3)Gal(b1-4)GlcNAc(b1-3)Gal(b1-4)GlcNAc(b1-3)GalNAc
# How it was run: as §1
# [29] = biological target: GlcNAc(b1-3)Gal(b1-4)GlcNAc(b1-3)GalNAc
# How it was run: as §1
# [30] = biological target: GlcNAc(b1-3)Gal(b1-4)GlcNAc(b1-3)[GlcNAc(b1-3)Gal(b1-4)GlcNAc(b1-3)]GalNAc
# How it was run: as §1
# [31] = biological target: GlcNAc(b1-3)Gal(b1-4)GlcNAc(b1-6)[Gal(b1-3)]GalNAc
# How it was run: as §1
# [32] = biological target: GlcNAc(b1-3)Gal(b1-4)GlcNAc(b1-6)[GlcNAc(b1-3)Gal(b1-3)]GalNAc
# How it was run: as §1
# [33] = biological target: GlcNAc(b1-3)Gal(b1-4)GlcNAc(b1-6)[GlcNAc(b1-3)]Gal(b1-4)GlcNAc
# How it was run: as §1
# GlcNAc(b1-3)GalNAc = biological target: GlcNAc(b1-3)GalNAc
# How it was run: as §1
binder,measurement,setting,value
GS13846A-bth-444-19-444 (Bacteroides thetaiotaomicron) (protein) SCENEFDVSDKADSLISVTVNTLNNQAAYNVGETAQAELWIQRGGLKDASGKVQFVVDPLLLDSLNQEDKTNYELLPENCYEMTNTEFTVDKNELCGYITYHPEKILALSAYNETKYVLPLRLISNDLAINPARNTSFLAFTILEPIVHISNAGVYNINPDLTSTMDIQIGVPFTNKWDILCNLTEDLSLIDEYNQINKVNFTLLPENAYTAPESVTLQEGVSQITASYQLKNNLVPGNYILPIKIGSITASQGGVPNNSLVIDEESNVLFCIVKEGNKINKSGWEVIECSSEHAGNEATYMIDDNESTYWHCKFKNEAGSSVPPFHFIIDMKKEITIAQIDLLNRGDGAANNIKWVEFYASNNNSEWDKIGAGDFNDEGTRATFRYYVKSTKARYLKLIIPEGYGNNCPPAAIRELTVYGLEGNN,glycan array binding signal (z-score),[1],-0.346
same,glycan array binding signal (z-score),[2],-0.367
same,glycan array binding signal (z-score),[3],-0.075
same,glycan array binding signal (z-score),[4],0.122
same,glycan array binding signal (z-score),[5],-0.27
same,glycan array binding signal (z-score),[6],-0.27
same,glycan array binding signal (z-score),[7],-0.227
same,glycan array binding signal (z-score),[8],-0.245
same,glycan array binding signal (z-score),[9],-0.251
same,glycan array binding signal (z-score),[10],-0.323
same,glycan array binding signal (z-score),[11],-0.376
same,glycan array binding signal (z-score),[12],-0.229
same,glycan array binding signal (z-score),GlcNAc(b1-3)Fuc,-0.316
same,glycan array binding signal (z-score),GlcNAc(b1-3)Gal,-0.392
same,glycan array binding signal (z-score),[13],-0.141
same,glycan array binding signal (z-score),GlcNAc(b1-3)Gal(b1-4)Glc,-0.277
same,glycan array binding signal (z-score),[14],-0.403
same,glycan array binding signal (z-score),[15],-0.095
same,glycan array binding signal (z-score),[16],0.401
same,glycan array binding signal (z-score),[17],0.661
same,glycan array binding signal (z-score),[18],-0.066
same,glycan array binding signal (z-score),[19],-0.086
same,glycan array binding signal (z-score),[20],0.103
same,glycan array binding signal (z-score),[21],0.179
same,glycan array binding signal (z-score),[22],-0.284
same,glycan array binding signal (z-score),[23],0.314
same,glycan array binding signal (z-score),[24],-0.081
same,glycan array binding signal (z-score),[25],0.543
same,glycan array binding signal (z-score),[26],0.213
same,glycan array binding signal (z-score),[27],-0.01
same,glycan array binding signal (z-score),[28],-0.379
same,glycan array binding signal (z-score),[29],-0.131
same,glycan array binding signal (z-score),[30],-0.247
same,glycan array binding signal (z-score),[31],-0.095
same,glycan array binding signal (z-score),[32],-0.091
same,glycan array binding signal (z-score),[33],-0.178
same,glycan array binding signal (z-score),GlcNAc(b1-3)GalNAc,-0.185
